From PubChem BioAssay AID686979 (National Center for Advancing Translational Sciences (NCATS), 2013)
Hit rate of the full screen: of about 420,000 compounds, about 50,000 (12%) were called active. This list was built around the results that the source calls inconclusive (neither active nor inactive); the mix of calls is not that of the screen. Calls follow the shape of the dose curve; as a rule, active = well fitted inhibition curve with a large enough effect; inconclusive = small, poorly fitted or top-dose-only effect; inactive = flat fitted curve, though single readings scatter. Potencies of inconclusive entries are left out as doubtful fits.
% is scaled to controls: 0 for no effect and ±100 for the full control effect; potency is read from the fitted curve at half-maximal effect; tags tell the direction and shape of the fitted curve.

Assay: qHTS for Inhibitors of human tyrosyl-DNA phosphodiesterase 1 (TDP1): qHTS in cells in presence of CPT; also: nearly all actives have a fitted effect of over 55% in size
Settings: chicken DT40 Tdp1-/-;hTDP1 cells + 20 nM CPT, ATP luminescence, 48 h; activity change, negative = growth inhibition: at 46.2 µM (top of the series)
How it was run: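 Chicken DT40 Tdp1-/- cells complemented with human TDP1, 400 cells/well, exposed to compounds plus 20 nM camptothecin for at least 48 h at 37 C; viability read as ATP content by CellTiter-Glo luminescence.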
With CCCCOc1cccc(C2c3c(-c4cc(C)ccc4O)n[nH]c3C(=O)N2CCOC)c1 (stereo not drawn) the Potency was inconclusive [inhibitor, single point].
With CC(OC(=O)c1nn(C)c(=O)c2ccccc12)C(=O)Nc1ccc(S(N)(=O)=O)cc1 (stereo not drawn) the “activity change, negative = growth inhibition” value was inactive: 9.27%.
For O=C(Nc1ccc(F)c(F)c1)c1cc(S(=O)(=O)NC2CCCC2)ccc1F, the Potency was inconclusive [inhibitor, single point].
For COC(=O)c1ccc2c(=O)[nH]c(COC(=O)c3[nH]c(C)c(C(C)=O)c3C)nc2c1, the Potency was inconclusive [inhibitor, single point].
With CC1CCN(S(=O)(=O)c2cc(C(=O)N3CCN(c4ccccc4)CC3)ccc2Br)CC1 the Potency was active: 23.1 µM.
In the case of O=C(c1ccc(CNS(=O)(=O)c2ccccc2)cc1)N1CCN(c2ccccn2)CC1, the Potency is reported as inconclusive [inhibitor, single point].
With O=C(O)c1ccc(NN=CC2=C(N3CCOCC3)/C(=C/c3ccccc3)CC2)cc1 the Potency was active: 1.46 µM.
With COc1ccc(C(=O)C[n+]2ccccc2Cl)cc1 the Potency was inconclusive [inhibitor, full curve, poor fit].
In the case of C#CCOCCOCCOCCNc1nc(N2CCN(C(=O)C(Cc3cc4ccccc4[nH]3)n3cc(C(N)Cc4ccc(O)cc4)nn3)CC2)nc(N2CCN(C(=O)C(Cc3cc4ccccc4[nH]3)n3cc(C(N)Cc4ccc(O)cc4)nn3)CC2)n1 (stereo not drawn), the “activity change, negative = growth inhibition” value is reported as inactive: 12.7%.
For COc1cc(C(=O)Oc2cccc(Nc3ncnc4ccccc34)c2)cc(OC)c1OC, the Potency was active: 23.1 µM.
With CS(=O)(=O)N1CCC(Oc2cccc(C(=O)NCCCC3CCCC3)c2)CC1 the Potency was inconclusive [inhibitor, single point].
For Cc1onc(-c2ccccc2Cl)c1C(=O)N(C)CC(=O)Nc1ccc(F)c(F)c1F, the Potency was inconclusive [inhibitor, single point].
For CCC(=O)N1CCN(c2ccccc2NC(=O)COc2cccc(C)c2C)CC1, the Potency was inconclusive [inhibitor, single point].
For COc1ccc(C(=O)c2c(C)c3cc(C)ccc3n2CC(O)CN2CCOCC2)cc1 (stereo not drawn), the Potency was inconclusive [inhibitor, single point].
With CN1CCN(c2cc3c(nn2)Oc2ccccc2N3C)CC1 the “activity change, negative = growth inhibition” value was inactive: 7.99%.
For Cc1cccc(N2CCN(CCCNc3ncnc4onc(-c5ccc(F)cc5)c34)CC2C)c1 (stereo not drawn), the Potency was inconclusive [inhibitor, single point].
In the case of Clc1ccc(N2N=C(c3cccs3)CC2c2ccco2)cc1 (stereo not drawn), the Potency is reported as inconclusive [inhibitor, partial curve].
For CC(C)(C(=O)N1CCC1(C)C(=O)NS(=O)(=O)c1ccc(C#N)cc1)c1ccccc1 (stereo not drawn), the “activity change, negative = growth inhibition” value was inactive: -16.7%.
With COc1cccc(C(=O)Nc2ccc3nc(SCCOc4ccccc4)sc3c2)c1 the activity change, negative = growth inhibition was inconclusive: -33.7% [inhibitor].
In the case of C[n+]1nc(Nc2ccccc2)sc1-c1ccc(O)cc1, the Potency is reported as inconclusive [inhibitor, single point].
With O=C(CCNS(=O)(=O)c1ccc2c(c1)CCN2C(=O)C1CC1)Nc1ccc(OC(F)(F)F)cc1 the Potency was inconclusive [inhibitor, full curve].
For COc1ccc(-c2cn[nH]c2-c2ccc(O)cc2O)cc1OC, the “activity change, negative = growth inhibition” value was inactive: -1.73%.
For COc1ccc(N(CC(=O)NCc2ccccc2OC)S(=O)(=O)c2ccccc2[N+](=O)[O-])c(OC)c1, the Potency was inconclusive [inhibitor, single point].
For O=C(C1CCCN(Cc2ccccc2F)C1)N1CCCCC1 (stereo not drawn), the “activity change, negative = growth inhibition” value was inactive: 0.76%.
With Cc1cc2cc(C(c3nnnn3Cc3ccccc3)N3CCc4ccccc43)c(=O)[nH]c2cc1C (stereo not drawn) the Potency was inconclusive [inhibitor, single point].
For CC(=O)Nc1ccc(S(=O)(=O)NC2=NCN(c3cccc([N+](=O)[O-])c3)CN2)cc1, the activity change, negative = growth inhibition was inconclusive: -30.4% [inhibitor].
For COc1ccc(NCc2ccc([N+](=O)[O-])s2)cc1, the Potency was inconclusive [inhibitor, single point].
In the case of O=C(CCN1C(=O)/C(=C\c2cccc(Br)c2)SC1=S)NCCCN1CCOCC1, the Potency is reported as inconclusive [inhibitor, single point].
With CN(C)CCNc1ccc(CO)c2oc3ccc(O)cc3c(=O)c12 the Potency was active: 0.13 µM.
In the case of CC(C)Cn1c(N)c(C(=O)NCCN2CCOCC2)c2nc3ccccc3nc21, the Potency is reported as inconclusive [inhibitor, single point].
With CC1(C)NC(=O)N(CC(=O)N2CCN(c3cccc(C(F)(F)F)c3)CC2)C1=O the Potency was inconclusive [inhibitor, partial curve, poor fit].
For N#Cc1c(N)n(C2CCCCC2)c2nc3ccccc3nc12, the activity change, negative = growth inhibition was inconclusive: -35.2% [inhibitor].
With COc1cccc(CNc2nc3cc(-c4ccc(F)cc4)sc3c(=O)n2C)c1OC the Potency was active: 25.9 µM.
For O=C(Nc1ccc(OC(F)(F)F)cc1)N1CCN(c2ccnc3cc(Cl)ccc23)CC1, the Potency was active: 4.61 µM.
For CCOc1ccc(NC2c3ccccc3C(=O)N2Cc2ccc3c(c2)OCO3)cc1 (stereo not drawn), the Potency was inconclusive [inhibitor, single point].
With O=[N+]([O-])c1ccc(O)c(-c2cc(C(F)(F)F)nc(-c3ccccc3)n2)c1 the Potency was active: 0.58 µM.
For CCNc1nc(NC(C)C)nc(OCCNS(=O)(=O)c2cc(C)ccc2C)n1, the “activity change, negative = growth inhibition” value was inactive: -17.7%.
In the case of O=C(Cc1cccc2ccccc12)NCCC1=CCCCC1, the “activity change, negative = growth inhibition” value is reported as inactive: -28.8%.
For CCOc1ccccc1-c1cc(C(=O)N/N=C/c2cccnc2)c2ccccc2n1, the Potency was inconclusive [inhibitor, full curve].
With COc1ccc(S(=O)(=O)N2CCCOC2CNC(=O)C(=O)NCc2ccco2)cc1 (stereo not drawn) the “activity change, negative = growth inhibition” value was inactive: 3.42%.
With COc1cccc2cc(C(=O)Nc3ccc(C)cc3)c(=O)oc12 the “activity change, negative = growth inhibition” value was inactive: -6.04%.
In the case of COC(=O)c1sccc1NC(=S)Nc1cc(OC)ccc1OC, the “activity change, negative = growth inhibition” value is reported as inactive: 20%.
With COCC(C)n1c(C)cc(C(=O)COC(=O)c2cc(=O)[nH]c3ccccc23)c1C (stereo not drawn) the Potency was inconclusive [inhibitor, partial curve].
In the case of Cn1nc(C(=O)NNC(=O)c2ccccc2Br)c2ccccc2c1=O, the “activity change, negative = growth inhibition” value is reported as inactive: -2.34%.
In the case of COc1cc(SC)ccc1C(=O)Nc1ccc2ncccc2c1, the Potency is reported as inconclusive [inhibitor, single point].
In the case of COc1ccc(/C(N)=N/OC(=O)Cc2ccc(OC)c(OC)c2)cc1, the Potency is reported as inconclusive [inhibitor, partial curve].
For CCN(c1ccccc1)S(=O)(=O)c1ccc(OC)c(NC(=O)Cn2cnc3c2c(=O)n(C)c(=O)n3C)c1, the Potency was inconclusive [inhibitor, single point].
In the case of O=C(Nc1ncc(S(=O)(=O)c2ccc([N+](=O)[O-])cc2)s1)c1cccnc1, the Potency is reported as active: 5.8 µM.
For O=C(CSc1ncnc2c1cnn2-c1ccccc1)Nc1ccc2c(c1)OCO2, the “activity change, negative = growth inhibition” value was inactive: -58%.
With Cc1ccc(NS(=O)(=O)c2csc(C(N)=O)c2)cc1C the Potency was inconclusive [inhibitor, partial curve].
In the case of CCOC(=O)c1ccc(NC(=O)C2=C(C)C(=O)OC23CCN(C(C)C)CC3)cc1, the Potency is reported as inconclusive [inhibitor, single point].
In the case of CCCc1nnc(NC(=O)CCCN2C(=O)c3ccccc3C2=O)s1, the Potency is reported as inconclusive [inhibitor, single point].
In the case of O=C(NCCCO)C(=O)NCC(c1ccc2c(c1)OCO2)N1CCN(c2ccc(F)cc2)CC1 (stereo not drawn), the “activity change, negative = growth inhibition” value is reported as inactive: -22.6%.
In the case of Cc1ccc2c(=O)cc(C(=O)Nc3sc4c(c3C(=O)NCc3cccnc3)CCCC4)oc2c1, the “activity change, negative = growth inhibition” value is reported as inactive: 3%.
With CCCCCCCNC(=O)C1(CC2CC(c3ccccc3)=NO2)CCN(C(=O)c2ccccc2)CC1 (stereo not drawn) the Potency was inconclusive [inhibitor, single point].
With O=C(NCC(c1cccnc1)N1CCc2ccccc21)c1ccc(Cl)cc1 (stereo not drawn) the Potency was active: 10.3 µM.
With Cc1ccc(-n2ncc(C(=O)NCCN3CCC(Cc4ccccc4)CC3)c2C2CCN(C(=O)OC(C)(C)C)CC2)cc1 the Potency was active: 4.61 µM.
In the case of CNC(=O)c1ccc(Nc2nc(-c3ccccc3)nc3ccccc23)cc1, the Potency is reported as active: 16.4 µM.
In the case of O=C(c1ccc2ccccc2c1)N1CCN(Cc2ccccc2)CC1, the activity change, negative = growth inhibition is reported as inconclusive: -34% [inhibitor].
In the case of Cc1ccccc1CCNC(=O)CCn1nc(C)c2c(C)n(-c3ccccc3)nc2c1=O, the Potency is reported as inconclusive [inhibitor, single point].
With CCCn1c(SCc2nc(-c3cccs3)no2)nnc1-c1ccncc1 the “activity change, negative = growth inhibition” value was inactive: -25.9%.
For CCCCC(=O)Nc1ccc(C(=O)N2CCN(c3ccccc3OC)CC2)cc1, the Potency was inconclusive [inhibitor, single point].
For CCOC(=O)c1ccc(Nc2cc(C)nc(-c3ccccc3O)n2)cc1, the Potency was inconclusive [inhibitor, single point].
With COC(=O)c1c(NC(=O)CSc2nnnn2C)sc(C)c1C the Potency was inconclusive [inhibitor, full curve].
In the case of Cc1ccc(C2=CC(c3ccccc3)n3ncnc3N2)cc1 (stereo not drawn), the Potency is reported as inconclusive [inhibitor, single point].
In the case of Clc1nc2sccn2c1/C=N/n1cnc2ccccc21, the Potency is reported as inconclusive [inhibitor, single point].
In the case of CN(Cc1ccon1)Cc1cn(Cc2ccccc2)nc1-c1ccc2c(c1)OCO2, the Potency is reported as inconclusive [inhibitor, single point].
For COc1ccc(-c2cc(C(F)(F)F)nc(SCC(=O)NC(C)c3ccccc3)n2)cc1 (stereo not drawn), the Potency was inconclusive [inhibitor, single point].
